Patent publication US20240076343A1 (CEPHALON, published 2024)

B1: 1H3-hIgG1-L6-hIL-2 (T3A/D20A/R38E/C125A) (other)
heavy: EVQLVESGGGLVQPGRSLKLSCAVSGFTFSDYAMAWVRQAPKKGLEWVATISYDGSRTYYRDSVKGRFTISRDNAKITLYLQMDSLRSEDTATYYCARHGSGYFDYWGQGVMVTVSS[not shown - human IgG1 constant region]SGGGGSAPASSSTKKTQLQLEHLLLALQMILNGINNYKNPKLTEMLTFKFYMPKKATELKHLQCLEEELKPLEEVLNLAQSKNFHLRPRDLISNINVIVLELKGSETTFMCEYADETATIVEFLNRWITFAQSIISTLT
light: DTVLTQSPALAVSPGERVTISCRASESVRTGVHWYQQKPGQQPKLLIYGASNLESGVPARFSGSGSGTDFTLTIDPVEADDTATYFCQQSWNDPFTFGSGTKLEIKRTVAAPSVFIFPPSDEQLKSGTASVVCLLNNFYPREAKVQWKVDNALQSGNSQESVTEQDSKDSTYSLSSTLTLSKADYEKHKVYACEVTHQGLSSPVTKSFNRGEC
B2: 2H7-hIgG4-df-hIL-2 (T3A/D20A/R38E/C125A) (other)
heavy: EVQLLESGGGLVQPGGSLRLSCAASGFTFKDYCMTWVRQAPGKGLEWVSAIVYSGGSTYYADSVKGRFTISRDNSKNTLYLQMNNLRAEDTAVYYCAKYTRASYFYDAMDVWGQGTTVTVSSASTKGPSVFPLAPCSRSTSESTAALGCLVKDYFPEPVTVSWNSGALTSGVHTFPAVLQSSGLYSLSSVVTVPSSSLGTKTYTCNVDHKPSNTKVDKRV[not shown - human IgG4 Fc with S228P (EU numbers)]APASSSTKKTQLQLEHLLLALQMILNGINNYKNPKLTEMLTFKFYMPKKATELKHLQCLEEELKPLEEVLNLAQSKNFHLRPRDLISNINVIVLELKGSETTFMCEYADETATIVEFLNRWITFAQSIISTLT
light: EIVLTQSPGTLSLSPGERATLSCRASQSIGKSFLAWYQQKPGQAPRLLIYDASTRAADIPARFSGSGSGTDFTLTISSLEPEDFAVYYCQQYYDWPPLSFGGGTKVEIKRTVAAPSVFIFPPSDEQLKSGTASVVCLLNNFYPREAKVQWKVDNALQSGNSQESVTEQDSKDSTYSLSSTLTLSKADYEKHKVYACEVTHQGLSSPVTKSFNRGEC

Columns and labels:
[1] = target: T1, intermediate affinity hIL-2 receptor (hIL-2Rβγ) on TF1+IL-2Rβ cells (human, UniProt P14784 27-551; P31785 23-369); assay: cell-based or functional assay
T1 sequence 1: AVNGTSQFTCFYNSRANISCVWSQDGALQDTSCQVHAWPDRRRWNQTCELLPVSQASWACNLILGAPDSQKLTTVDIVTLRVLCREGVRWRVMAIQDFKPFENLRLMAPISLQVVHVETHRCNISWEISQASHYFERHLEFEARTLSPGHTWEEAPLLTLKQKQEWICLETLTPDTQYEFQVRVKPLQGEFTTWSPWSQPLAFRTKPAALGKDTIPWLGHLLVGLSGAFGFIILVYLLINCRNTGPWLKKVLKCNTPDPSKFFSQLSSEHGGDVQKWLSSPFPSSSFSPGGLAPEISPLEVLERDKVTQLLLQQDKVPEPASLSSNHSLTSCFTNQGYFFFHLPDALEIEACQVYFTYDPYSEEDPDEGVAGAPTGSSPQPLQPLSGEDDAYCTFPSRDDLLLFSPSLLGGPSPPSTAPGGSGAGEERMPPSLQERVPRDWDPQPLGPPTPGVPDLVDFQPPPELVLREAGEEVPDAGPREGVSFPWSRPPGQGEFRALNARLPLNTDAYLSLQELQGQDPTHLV
T1 sequence 2: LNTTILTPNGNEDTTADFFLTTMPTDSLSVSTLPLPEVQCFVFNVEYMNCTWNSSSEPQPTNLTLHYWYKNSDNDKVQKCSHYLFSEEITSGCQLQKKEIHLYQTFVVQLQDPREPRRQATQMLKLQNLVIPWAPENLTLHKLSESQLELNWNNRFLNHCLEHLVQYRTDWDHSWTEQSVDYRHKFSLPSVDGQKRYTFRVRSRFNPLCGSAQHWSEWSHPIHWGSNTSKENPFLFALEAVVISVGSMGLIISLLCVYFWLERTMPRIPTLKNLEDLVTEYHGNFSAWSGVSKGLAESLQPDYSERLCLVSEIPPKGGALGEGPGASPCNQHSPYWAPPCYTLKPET

[2] = target: T2, high affinity hIL-2 receptor (hIL-2Rαβγ) on NK-92 cells (human, UniProt P01589 22-272; P14784 27-551; P31785 23-369); assay: cell-based or functional assay
T2 sequence 1: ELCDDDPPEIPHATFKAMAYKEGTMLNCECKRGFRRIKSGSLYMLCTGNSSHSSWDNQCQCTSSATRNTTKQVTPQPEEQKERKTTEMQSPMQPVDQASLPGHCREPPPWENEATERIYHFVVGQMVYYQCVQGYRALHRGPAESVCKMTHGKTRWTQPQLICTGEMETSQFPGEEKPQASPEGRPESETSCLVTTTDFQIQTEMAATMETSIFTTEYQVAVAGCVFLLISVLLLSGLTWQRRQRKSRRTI
T2 sequence 2: T1 sequence 1
T2 sequence 3: T1 sequence 2

[3] = target: T3, native human PD-1 on PMA/ionomycin-activated primary human T cells (human, UniProt Q15116 25-288); assay: flow cytometry, activated human CD3+CD8+ T cells
T3 construct: whole, on cells; also called native hPD-1
T3 sequence (Q15116 25-288): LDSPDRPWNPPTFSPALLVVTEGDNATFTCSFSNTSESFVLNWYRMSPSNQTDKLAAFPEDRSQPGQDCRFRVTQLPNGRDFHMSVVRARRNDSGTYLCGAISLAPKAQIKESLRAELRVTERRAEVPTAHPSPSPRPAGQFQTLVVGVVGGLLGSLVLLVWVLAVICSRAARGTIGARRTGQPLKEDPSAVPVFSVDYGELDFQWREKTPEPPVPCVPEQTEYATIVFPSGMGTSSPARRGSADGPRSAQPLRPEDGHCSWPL

[4] = target: T3, native human PD-1 on …; assay: flow cytometry, activated human CD3+CD4+ T cells
[5] = target: T4, native cynomolgus PD-1 on PMA/ionomycin-activated cynomolgus T cells (cynomolgus, UniProt B0LAJ3 25-288); assay: flow cytometry, activated cynomolgus CD3+CD4+ T cells
T4 sequence (B0LAJ3 entry or part of it limits assumed): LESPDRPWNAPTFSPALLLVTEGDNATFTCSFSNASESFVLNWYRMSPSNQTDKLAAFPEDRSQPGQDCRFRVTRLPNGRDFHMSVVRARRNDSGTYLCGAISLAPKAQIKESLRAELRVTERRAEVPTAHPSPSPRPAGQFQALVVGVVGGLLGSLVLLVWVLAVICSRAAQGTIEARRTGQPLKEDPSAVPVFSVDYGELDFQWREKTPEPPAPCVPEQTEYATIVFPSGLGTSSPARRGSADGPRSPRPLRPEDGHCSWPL

[6] = target: T4, native cynomolgus PD-1 on …; assay: flow cytometry, activated cynomolgus CD3+CD8+ T cells

| Binder | Fold change from rhIL-2 (TF1 + IL-2Rβ) [1] [fold] | Fold change from rhIL-2 (NK-92) [2] [fold] | EC50 [3] [nM] | EC50 [4] [nM] | EC50 [5] [nM] | EC50 [6] [nM] |
| --- | --- | --- | --- | --- | --- | --- |
| B1 | ~1090 | > 10000 |  |  |  |  |
| B2 |  |  | 0.03 | 0.04 | 0.04 | 0.03 |
